Results reported in ChEMBL document CHEMBL5606458, “ASAP - ZIKV NS2B-NS3 protease fluorescence single point” (2024).
Screen size: about 2,700 compounds; about 160 (5.9%) showed an effect of 50% or more. This is one part of the list.

Molecular target: Nonstructural protein 3 (Zika virus) (UniProt A0A024AXB9)
[1] = PRVABC59, Concentration 10.0 uM, Number of replicates 1.0
[2] = PRVABC59, Concentration 50.0 uM, Number of replicates 1.0
[3] = PRVABC59, Concentration 15.0 uM, Number of replicates 1.0

Sequence of UniProt A0A024AXB9 (A0A024AXB9 as listed by the source): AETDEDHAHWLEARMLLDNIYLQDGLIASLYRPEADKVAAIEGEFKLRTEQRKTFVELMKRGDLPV

In the case of `O=Cc1ccc(N2CCC(C(=O)NCc3cccc([N+](=O)[O-])c3)CC2)cc1`, the inhibition [1] is reported as 25.2%.
Molecule `O=Cc1ccc(N2CCC(C(=O)NCCCCN3CCOCC3)CC2)cc1` has an inhibition [2] of 19.4%.
For `Cc1cc(NC(=O)c2cc(Cl)ccc2NS(=O)(=O)c2ccc(Oc3ccccc3Cl)cc2)ncc1I`, the inhibition [3] was 24.9%.
`O=S(=O)(Nc1ccccc1)c1ccc(Oc2ccccc2Cl)cc1` gave an inhibition (PRVABC59, Concentration 49.5 uM, Number of replicates 2.0, Standard deviation 2.4375488222864568 %) of 4.97%, an inhibition (PRVABC59, Concentration 99.01 uM, Number of replicates 2.0, Standard deviation 2.5594260442371675 %) of 6.09% and an inhibition (PRVABC59, Concentration 198.0 uM, Number of replicates 2.0, Standard deviation 3.6345597809704175 %) of 7.77%.
`O=Cc1ccc(N2CCC(C(=O)Nc3ccc(Cl)nc3Cl)CC2)cc1` gave an inhibition [2] of 20.5%.
With `O=Cc1ccc(N2CCC(C(=O)Nc3ccc(I)cc3)CC2)cc1` the inhibition [2] was 20.3%.
`COc1cc(Cl)nc(NC(=O)C2CCN(c3ccc(C=O)cc3)CC2)n1` showed an inhibition [2] of 26.4%.
`Cc1cc(CO)c2cccc(Cc3ccccc3C(=O)N(c3ncccn3)S(=O)(=O)c3ccc(N)cc3)c2n1` gave an inhibition (PRVABC59, Concentration 49.95 uM, Number of replicates 2.0, Standard deviation 0.5295893128804832 %) of 2.68% and an inhibition (PRVABC59, Concentration 99.9 uM, Number of replicates 2.0, Standard deviation 0.15206043463069627 %) of 8.61%.
Molecule `CCOc1ccc(CCNC(=O)c2cc(Cl)ccc2NS(=O)(=O)c2ccc(Oc3ccccc3Cl)cc2)cc1` has an inhibition [3] of 24.1%.
Molecule `Cn1cc(NC(=O)c2ccccc2C(F)(F)F)c(-c2ccc3oc(=O)[nH]c3c2)n1` has an inhibition (PRVABC59, Concentration 49.5 uM, Number of replicates 2.0, Standard deviation 0.7842352610803925 %) of 1.48%, an inhibition (PRVABC59, Concentration 99.01 uM, Number of replicates 2.0, Standard deviation 0.1277079855611017 %) of 3.29% and an inhibition (PRVABC59, Concentration 198.0 uM, Number of replicates 2.0, Standard deviation 1.2159242726595276 %) of 4.84%.
`O=C(NCc1c(F)cc(F)c(F)c1F)c1cc(Cl)ccc1NS(=O)(=O)c1ccc(Oc2ccccc2Cl)cc1` showed an inhibition [3] of 38.5%.
With `CS(=O)(=O)c1ccc(O)c(NC(=O)c2cc(Cl)ccc2NS(=O)(=O)c2ccc(Oc3ccccc3Cl)cc2)c1` the inhibition [3] was 32.3%.
`O=Cc1ccc(N2CCC(C(=O)Nc3ccc(-c4ccccn4)cc3)CC2)cc1` showed an inhibition [2] of 20.4%.
Work on `CCCc1nn(C)c(C(N)=O)c1NC(=O)C1CCN(c2ccc(C=O)cc2)CC1` yielded an inhibition [2] of 11%.
`O=Cc1ccc(N2CCC(C(=O)Nc3cc(Cl)ccc3OC(F)(F)F)CC2)cc1` showed an inhibition [2] of 24.5%.
Molecule `CC(C)(CC(=O)N1CCCC1)NC(=O)C1CCN(c2ccc(C=O)cc2)CC1` has an inhibition [2] of 26.7%.
`CCCCN(Cc1ccc(F)cc1)C(=O)c1cc(Cl)ccc1NS(=O)(=O)c1ccc(Oc2ccccc2Cl)cc1` was tested, and the inhibition [3] was 25.8%.
Molecule `Cc1cc(CO)c2cccc(C[C@H](NC(=O)[C@H](N)CCO)C(=O)O)c2n1` has an inhibition (PRVABC59, Concentration 49.95 uM, Number of replicates 2.0, Standard deviation 1.9119132209710834 %) of -7.31% and an inhibition (PRVABC59, Concentration 99.9 uM, Number of replicates 2.0, Standard deviation 1.3599169575482686 %) of -6.54%.
`Cc1cc(N)c2c(Cl)ccc(Cl)c2n1` was tested, and the inhibition (PRVABC59, Concentration 49.95 uM, Number of replicates 2.0, Standard deviation 14.266771188329304 %) was -9.58%.
In the case of `O=Cc1ccc(N2CCC(C(=O)N3CCCC[C@H]3C(=O)N3CCCC3)CC2)cc1`, the inhibition [2] is reported as 21.1%.
`Cc1cc(CO)c2cccc(Cc3cccc(NC(=O)c4nc(N)n[nH]4)c3)c2n1` gave an inhibition (PRVABC59, Concentration 49.95 uM, Number of replicates 2.0, Standard deviation 3.2981012364268594 %) of -0.767% and an inhibition (PRVABC59, Concentration 99.9 uM, Number of replicates 2.0, Standard deviation 3.2421151330326254 %) of 4.54%.
`CNC(=O)c1cc2cc(Cl)ccc2n1S(=O)(=O)c1ccc(Oc2ccccc2Cl)cc1` was tested, and the inhibition (PRVABC59, Concentration 49.5 uM, Number of replicates 2.0, Standard deviation 1.7155938749569153 %) was 6.93%, the inhibition (PRVABC59, Concentration 99.01 uM, Number of replicates 2.0, Standard deviation 2.1715802918214897 %) was 10.6% and the inhibition (PRVABC59, Concentration 198.0 uM, Number of replicates 2.0, Standard deviation 0.15575789335686 %) was 14.1%.
Work on `CN(Cc1cc([N+](=O)[O-])ccc1Cl)C(=O)C1CCN(c2ccc(C=O)cc2)CC1` yielded an inhibition [2] of 26.6%.
Work on `O=C(NCCOc1ccc(F)cc1)c1cc(Cl)ccc1NS(=O)(=O)c1ccc(Oc2ccccc2Cl)cc1` yielded an inhibition [3] of 36.7%.
In the case of `CC(C)(C)c1csc(NC(=O)C2CCN(c3ccc(C=O)cc3)CC2)n1`, the inhibition [2] is reported as 24.2%.
`O=C(Nc1nc2[nH]cnc2c(=O)[nH]1)c1cc(Cl)ccc1NS(=O)(=O)c1ccc(Oc2ccccc2Cl)cc1` showed an inhibition [3] of 21.9%.
For `O=C(NCCCSc1ccccc1)c1cc(Cl)ccc1NS(=O)(=O)c1ccc(Oc2ccccc2Cl)cc1`, the inhibition [3] was 21.8%.
`Cc1cc(F)cc(Br)c1NC(=O)C1CCN(c2ccc(C=O)cc2)CC1` was tested, and the inhibition [2] was 25.6%.
Molecule `Cc1cc(CO)c2cccc(Cc3cccc(NC(=O)CNC4CC4)c3)c2n1` has an inhibition (PRVABC59, Concentration 49.95 uM, Number of replicates 2.0, Standard deviation 2.20382385319093 %) of -2.08% and an inhibition (PRVABC59, Concentration 99.9 uM, Number of replicates 2.0, Standard deviation 2.3107066172874657 %) of 1.16%.
`CCOCCN(CCOCC)C(=O)c1cc(Cl)ccc1NS(=O)(=O)c1ccc(Oc2ccccc2Cl)cc1` gave an inhibition [3] of 18.3%.
In the case of `Cc1cccc(N2CCN(C(=O)c3cc(Cl)ccc3NS(=O)(=O)c3ccc(Oc4ccccc4Cl)cc3)CC2)n1`, the inhibition [3] is reported as 14%.
In the case of `NCc1cccc(NC(=O)C2CN(C(=O)OCc3ccccc3)C2)c1`, the inhibition (PRVABC59, Concentration 49.5 uM, Number of replicates 2.0, Standard deviation 0.7047125451631892 %) is reported as 1.12%, the inhibition (PRVABC59, Concentration 99.01 uM, Number of replicates 2.0, Standard deviation 1.0691153353532887 %) is reported as 3.88% and the inhibition (PRVABC59, Concentration 198.0 uM, Number of replicates 2.0, Standard deviation 0.2800776094724739 %) is reported as 10.1%.
`COCCOCCOCCNC(=O)c1cc(Cl)ccc1NS(=O)(=O)c1ccc(Oc2ccccc2Cl)cc1` gave an inhibition [3] of 2.49%.
Molecule `COc1cc(Cc2ccnc(F)c2)nc(N2CCNCC2)n1` has an inhibition (PRVABC59, Concentration 49.5 uM, Number of replicates 2.0, Standard deviation 2.56230025910808 %) of 1.94%, an inhibition (PRVABC59, Concentration 99.01 uM, Number of replicates 2.0, Standard deviation 2.772155012837961 %) of 4.24% and an inhibition (PRVABC59, Concentration 198.0 uM, Number of replicates 2.0, Standard deviation 0.028498687438702285 %) of 5.13%.
For `Cc1cc(CO)c2cccc(NC(=O)COc3cccc(CN)c3)c2n1`, the inhibition (PRVABC59, Concentration 49.95 uM, Number of replicates 2.0, Standard deviation 14.336839228160605 %) was 5.84% and the inhibition (PRVABC59, Concentration 99.9 uM, Number of replicates 2.0, Standard deviation 17.14198241074065 %) was 9.26%.
`C#CCN(Cc1ccccc1Cl)C(=O)c1cc(Cl)ccc1NS(=O)(=O)c1ccc(Oc2ccccc2Cl)cc1` showed an inhibition [3] of 37.5%.
In the case of `C[C@@H](CC(C)(C)c1ccccc1)NC(=O)C1CCN(c2ccc(C=O)cc2)CC1`, the inhibition [2] is reported as 25.7%.
`O=Cc1ccc(N2CCC(C(=O)N(Cc3ccccc3)[C@H]3CCS(=O)(=O)C3)CC2)cc1` gave an inhibition [2] of 24.8%.
Work on `O=Cc1ccc(N2CCC(C(=O)Nc3ccc(Br)c([N+](=O)[O-])c3)CC2)cc1` yielded an inhibition [2] of 37.7%.
Molecule `O=Cc1ccc(N2CCC(C(=O)Nc3cc(Cl)c(Br)cn3)CC2)cc1` has an inhibition [2] of 21.4%.
`O=C(c1cc(Cl)ccc1NS(=O)(=O)c1ccc(Oc2ccccc2Cl)cc1)N1CCC(N2CCc3ccccc3C2)CC1` gave an inhibition [3] of 4.87%.
`COc1cccc(CNC(=O)C2CCN(c3ccc(C=O)cc3)CC2)c1OC` showed an inhibition [1] of 14.4%.
`Cc1cc(CO)c2cccc(Cc3ccccc3C(=O)NCC(N)=O)c2n1` was tested, and the inhibition (PRVABC59, Concentration 49.95 uM, Number of replicates 2.0, Standard deviation 0.4299636038947961 %) was -6.99% and the inhibition (PRVABC59, Concentration 99.9 uM, Number of replicates 2.0, Standard deviation 1.2112392289790566 %) was -0.356%.
Work on `O=C(Nc1ccc(Br)c(C(F)(F)F)c1)c1cc(Cl)ccc1NS(=O)(=O)c1ccc(Oc2ccccc2Cl)cc1` yielded an inhibition [3] of 29.1%.
